Assay results as given in PubChem BioAssay AID493208 (National Center for Advancing Translational Sciences (NCATS), 2011).
Screen size: about 44,000 compounds; about 340 (0.77%) were called active. About 5% were inconclusive and are not listed. The call rests on the fitted dose curve; in most records, active means well fitted inhibition curve with a large enough effect; inconclusive means small, poorly fitted or top-dose-only effect; inactive means flat fitted curve, though single readings scatter. The list shows a part of the results.

assay: Acumen qHTS Assay for Inhibitors of the mTORC1 Signaling Pathway in MEF (Tsc2-/-, p53-/-) Cells: Sytravon; conditions: phospho-rpS6 immunofluorescence/PI, 24 h; series mostly up to 38.3 µM; activity change, negative = inhibition: at the top concentration;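 further: plate controls were DMSO for no effect and rapamycin for full effect; nearly all actives have a fitted effect of over 50% in size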
Method in brief: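 Cell-based qHTS: Tsc2-/- p53-/- MEF, 24 h cpd, 37 °C; fix/perm, anti-phospho-S6 Alexa-488 + PI; Acumen 488 nm scan; pS6/PI ratio, % positive cells; rapamycin 7.5 nM = inhibition ref; PI count = viability.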

| Compound | activity change, negative = inhibition |
| --- | --- |
| CCOc1cccc2sc(N(Cc3cccnc3)C(=O)C3CCCCC3)nc12 | inactive: -6.25% |
| Cc1cccc(NC(=O)c2ccc(C(=O)Nc3cccc(C)c3C)cc2)c1C | inactive: -0.454% |
| CN1CCN(C(c2ccccc2Cl)c2sc3nc(-c4ccco4)nn3c2O)CC1 (stereo not drawn) | inactive: -7.18% |
| CCC(=O)N1CCc2cc(Br)cc(S(=O)(=O)N3CCN(c4ccc(C(C)=O)cc4)CC3)c21 | inactive: -0.89% |
| CCCCN(C)CCNC(=O)c1nn(-c2ccc(OC)c(Cl)c2)c(=O)c2c1c1ccccc1n2C | inactive: -2.67% |
| Cc1nn(-c2ccccc2)c2sc(C(=O)Nc3ccc(Cl)cc3Cl)cc12 | inactive: 8.53% |
| COc1ccc(CNC(=O)Cn2c(=O)c3cccn3c3cccnc32)cc1 | inactive: -7.62% |
| Cc1cccn2c(=O)c(C(=O)N3CCN(c4ccccc4F)CC3)cnc12 | inactive: -6.51% |
| COc1ccc(C(=O)Nc2nnc(SCc3cc(=O)c4cc(C)ccc4[nH]3)s2)cc1OC | inactive: -7.96% |
| COC(=O)C1=C(CS(=O)(=O)c2ccc(C)cc2C)NC(=O)NC1c1ccc(C)cc1 (stereo not drawn) | inactive: -11.2% |
| COc1ccc2c(C)c(CCC(=O)NCCc3ccccc3)c(=O)oc2c1 | inactive: -0.358% |
| CCN(CC)c1ccc2cc(-c3nnc(Nc4ccc(C)cc4)s3)c(=O)oc2c1 | inactive: -4.8% |
| Cc1cc(C)c(S(=O)(=O)NCc2ccc3c(c2)CCN3C(=O)c2ccccc2)c(C)c1 | inactive: 0% |
| COC(=O)c1ccc(NC(=O)c2c(NCc3cccc(F)c3)sc3c2CCCC3)cc1 | inactive: -4.21% |
| Cc1cc2c(cc1S(=O)(=O)N(CCN(C)C)Cc1ccccc1)OCC(=O)N2 | inactive: 5.3% |
| CCC(Oc1ccccc1F)C(=O)Nc1cc(-c2ccccc2)no1 (stereo not drawn) | inactive: -2.46% |
| COc1ccccc1C(c1c(O)cc(C)n(Cc2ccco2)c1=O)N1CCCCC1 (stereo not drawn) | inactive: 4.01% |
| Cc1cccc(N2CCN(S(=O)(=O)c3cc(C(=O)Nc4ccc(Oc5ccccc5)cc4)ccc3F)CC2C)c1 (stereo not drawn) | inactive: -12.5% |
| CCOc1ccccc1NC(=O)CSc1c2c(nc3ccc(Cl)cc13)CCCC2 | inactive: 2.46% |
| COc1ccc(S(=O)(=O)N(CC(=O)NCCSc2ccc(C)cc2)c2ccc(C)cc2)cc1 | inactive: 3.12% |
| CCOC(=O)C1CCCN(S(=O)(=O)c2cc(-c3onc(C)c3C)ccc2OC)C1 (stereo not drawn) | inactive: -4.61% |
| CCc1c(-c2ccccc2)nc2ccccc2c1C(=O)NC(C)c1ccccc1 (stereo not drawn) | inactive: -3% |
| CC1CCc2onc(C(=O)Nc3ccc(Cl)cc3)c2C1 (stereo not drawn) | inactive: 2.55% |
| COc1ccc(-c2noc(CNC(=O)c3cc(OC)c(OC)c(OC)c3)n2)cc1 | inactive: -4.22% |
| Cc1[nH]c2ccc(C(=O)NCCCN3CCCCC3)cc2c1C | inactive: -5.11% |

| Compound | activity change, negative = inhibition |
| --- | --- |
| COc1cccc(-c2nc(-c3ccc(Br)o3)no2)c1 | inactive: 7.03% |
| CCCN(c1ccccc1F)S(=O)(=O)c1ccc2c(c1)C(C)(C)C(=O)N2C | inactive: 0.867% |
| CC(=O)N1CCC(N(Cc2ccc(C)o2)C(=O)Nc2ccccc2F)CC1 | inactive: -1.63% |
| Cc1nc2c(c(C)c1CCC(=O)NCc1ccc(F)cc1)c(=O)n(C)c(=O)n2C | inactive: 2.96% |
| CCOc1ccccc1NC(=O)Cn1nnc(C(=O)NCc2cccs2)c1N | inactive: -19.3% |
| CCOc1c(Br)cc(C2C=C(C(=O)O)Nc3ncnn32)cc1OC (stereo not drawn) | inactive: 2.27% |
| COc1ccc(NCc2cc3cc4c(cc3n(CC(=O)Nc3ccc(C)cc3C)c2=O)OCO4)cc1 | inactive: 0% |
| CC(=O)N1c2ccccc2C(=O)C1N1CCN(c2ccc(Cl)cc2)CC1 (stereo not drawn) | inactive: -6.19% |
| O=C(NCc1ccccc1)c1cc(Sc2cccc(Cl)c2)nc2ccccc12 | inactive: -4.85% |
| CCOC(=O)c1cc(OC(=O)c2ccccc2F)n(-c2ccccc2)n1 | inactive: -7.18% |
| Cc1ccc(-c2nc(S(=O)(=O)c3ccc(F)cc3)c(N3CCN(c4ccccc4)CC3)o2)cc1 | inactive: 0% |
| CC(C)C[C@H](N)c1nnc(SCc2ccc(Cl)cc2Cl)o1 | inactive: -1.47% |
| Cc1ccccc1Nc1nn2c(=O)c3ccc(C(=O)NCC(C)c4ccccc4)cc3nc2s1 (stereo not drawn) | inactive: -9.99% |
| CC1=C(c2ccc(C(C)C)cc2)S(=O)(=O)N=C1N1CCN(c2ccccc2F)CC1 | inactive: 0% |
| CCOC(=O)c1ccc(NC(=O)c2c(NCc3sccc3C)sc3c2CCC(C)C3)cc1 (stereo not drawn) | inactive: -2.91% |
| NC(=O)c1nc(Nc2ccccc2)sc1NC(=O)c1c(F)cccc1F | inactive: -19.5% |
| CCOCCCNC(=O)c1c[nH]c2ccc(S(=O)(=O)N(C)c3ccc(Cl)cc3F)cc2c1=O | inactive: 6.57% |
| CN1CCN(C(CNC(=O)C(=O)Nc2ccc(Cl)cc2)c2cccnc2)CC1 (stereo not drawn) | inactive: -20.6% |
| Cc1ccc(C)c(N2CCN(C(=O)CCc3nnc4n(C)c(=O)c5ccccc5n34)CC2)c1 | inactive: -7.37% |
| CCOC(=O)c1cccnc1SCC(=O)N(CC)c1cccc(C)c1 | inactive: 13.6% |
| CC(C)(C)c1ccc(OCC(=O)Nc2ccc(C(=O)OC3CCCCC3)cc2)cc1 | inactive: -5.28% |
| COc1ccc(F)cc1S(=O)(=O)NCC(c1ccco1)S(=O)(=O)c1cccs1 (stereo not drawn) | inactive: -11.8% |
| CC(C)Cn1nc(NC(=O)c2cccc(Cl)c2)c2cc3ccccc3nc21 | inactive: 2.25% |
| CCc1ccccc1NC(=O)c1oc(=O)c2ccccc2c1-c1ccccc1 | inactive: -2.56% |
| CCCCOc1cccc(C(=O)Nc2sc3c(c2C(=O)OCC)CCCC3)c1 | inactive: 1.99% |

| Compound | activity change, negative = inhibition |
| --- | --- |
| Cc1ccc2nc3c(cc(C#N)c(=O)n3-c3nnc(SCc4ccc(F)cc4)s3)c(=O)n2c1 | inactive: 0.761% |
| COc1cccc(NC(=O)CSc2nc(=O)n(Cc3cccnc3)c3c2CCC3)c1 | inactive: -2.84% |
| CCOc1ccccc1NC(=O)Cn1c(=O)n(CC(=O)NCc2ccccc2Cl)c(=O)c2sccc21 | inactive: -3.49% |
| COc1ccc(OCC(=O)Nc2ccc(-c3nc4cc(Cl)ccc4o3)cc2)cc1 | inactive: 7.17% |
| COc1ccc(CCNC(=O)CCCCn2c(=O)c3ccccc3n(Cc3cc(C)ccc3C)c2=O)cc1OC | inactive: -14.6% |
| CCCN(CCC)C(=O)Cn1c(=O)n(-c2ccc(OC)cc2OC)c(=O)c2c3c(sc21)CCC3 | inactive: 1.39% |
| CCOc1ccc(CNC(=O)c2ccc3c(c2)c(C)c(C)n3C)cc1 | inactive: 5.07% |
| CCCn1c2ccccc2c2cnn(CC(=O)NCC3CCN(Cc4ccc(C)cc4)CC3)c(=O)c21 | inactive: -3.8% |
| CCOc1ccc(-n2c(SCc3ccccc3)nc3c([nH]c4ccccc43)c2=O)cc1 | inactive: -5.13% |
| Cc1ccc(NC(=O)Nc2nnc(SCC(=O)N3CCCCC3)s2)cc1 | inactive: 0.848% |
| COc1ccc(Nc2cc(C)c3cc(NC(=O)c4ccccc4Cl)ccc3n2)cc1 | inactive: -7.55% |
| COc1cccc(N2CC(NC(=O)c3cc4ccccc4o3)CC2=O)c1 (stereo not drawn) | inactive: 1.54% |
| Fc1ccc(-c2noc3ncnc(NCCc4ccc(Cl)cc4)c23)cc1 | inactive: -2.8% |
| CC(C)c1ccc2c(c1)NC(c1ccc(F)cc1)=NC(c1cccs1)=N2 | inactive: -3.89% |
| Cc1nc2ncnn2c(C)c1CCC(=O)N1CCN(c2ccc(F)cc2)CC1 | inactive: 0.835% |
| COc1cccc(CNC(=O)N2CCc3c(sc4c3CCCC4)C2c2ccc(F)cc2)c1 (stereo not drawn) | inactive: 8.81% |
| Cc1cccc(C(=O)NCCc2nc3ccccc3n2Cc2ccccc2Cl)c1 | inactive: -3.36% |
| Cc1cc(Nc2cccc(C(F)(F)F)c2)nc2ccc(NC(=O)Cc3ccc(Cl)cc3)cc12 | inactive: -22.9% |
| CCOC(=O)CCc1c(C)nc2c(-c3ccccc3)c(C)[nH]n2c1=O | inactive: 2.43% |
| CCOc1ccccc1CNC(=O)CSc1n[nH]c(-c2ccccc2)n1 | inactive: -12% |
| O=C(CSc1nnc(-c2ccncc2)n1-c1ccccc1)Nc1ccc(F)cc1 | inactive: -8.78% |
| CC(C)c1noc(-c2ccccc2OCC(=O)Nc2ccc([N+](=O)[O-])cc2)n1 | inactive: -0.384% |
| Cc1cc(=O)n(Cc2cccc(Cl)c2)c2c1c(C)nn2C | inactive: -14.4% |
| COc1ccc(OC)c(C2C(C(=O)Nc3ccc(C)cc3C)=C(C)Nc3c(C(=O)Nc4ccc(F)cc4)cnn32)c1 (stereo not drawn) | inactive: 8.87% |
| CCn1c2c(c(=O)n3ncc(C(=O)N4CCN(c5ccccc5)CC4)c13)CN(Cc1ccc(OC)cc1)CC2 | inactive: -0.138% |

| Compound | activity change, negative = inhibition |
| --- | --- |
| COc1ccc(Cl)cc1NC(=O)CSc1nc(=O)n(Cc2ccco2)c2c1CCC2 | inactive: -9.73% |
| CCOC(=O)c1ccccc1NC(=O)c1cn(CC(C)C)c(=O)c2cc(OC)c(OC)cc12 | inactive: -16.4% |
| COc1ccc(OC)c(-c2noc(CSc3nnc(-c4ccccc4)n3-c3ccccc3)n2)c1 | inactive: 1.7% |
| Cc1ccc(-n2ncc3c(Nc4ccc(Oc5ccccc5)cc4)ncnc32)c(C)c1 | inactive: 1.33% |
| COc1ccc(N2CCN(S(=O)(=O)c3ccc(C4CCCCC4)cc3)CC2)cc1 | inactive: -0.846% |
| Cc1ccc(OCC(=O)Nc2nnc(S(=O)(=O)N3CCc4ccccc43)s2)cc1 | inactive: 7.26% |
| COc1ccc(Cn2c(C(=O)O)c(CNCc3ccc(OC)cc3OC)c3ccc(C)cc32)cc1 | inactive: -13.5% |
| COc1ccc(NC(=O)CSCc2cc(=O)c3cc(C)ccc3[nH]2)cc1 | inactive: 3.29% |
| Fc1ccc(CNCCCSc2nnnn2-c2ccccc2)cc1 | inactive: -2.06% |
| COc1ccc(CCCc2nnc(SCC(=O)Nc3cc(F)ccc3C)o2)cc1 | inactive: -5.8% |
| CCOc1ccc(CNC(=O)c2ccc3c(Cl)c4c(nc3c2)CCCC4)cc1 | inactive: -1.53% |
| CN(C(=O)CSc1nc2ccc(NC(=O)c3cccc(F)c3)cc2s1)c1ccccc1 | inactive: -11.8% |
| COc1cc(Cl)c(C)cc1NC(=O)CC1Oc2ccccc2NC1=O (stereo not drawn) | inactive: -0.548% |
| COc1ccc(C(=O)Nc2ccc(-c3nc4ncccc4o3)cc2C)cc1Br | inactive: -2.43% |
| CCn1c(=O)c2cc(C(=O)Nc3cccc(C(F)(F)F)c3)sc2c2ccccc21 | inactive: -14.9% |
| CCNC(=O)CCCN1C(=O)CCn2nc(-c3cccn3C)cc21 | inactive: -0.31% |
| CCC(Sc1nc2nccnc2c(=O)n1Cc1ccccc1Cl)C(=O)NC1CCCCC1 (stereo not drawn) | inactive: 9.67% |
| O=S(=O)(c1ccc(C2CCCCC2)cc1)N1CCN(c2cc(Cl)ccc2Cl)CC1 | inactive: 0.236% |
| COc1ccc(-n2c(/C=C/c3cccc4ccccc34)nc3ccccc3c2=O)cc1OC | inactive: 2.61% |
| Cc1ccc(CNC(=O)CSCc2ccccc2C)cc1 | inactive: 11% |
| Cc1ccc2nc(NCc3ccccc3)c3nncn3c2c1 | inactive: -3.59% |
| CCn1cc(C(=O)NCCc2ccc(Cl)cc2)c(=O)c2cc(S(=O)(=O)N(C)C3CCCCC3)ccc21 | inactive: 0.6% |
| Cc1cccc(N(CC(=O)NCCc2ccccc2)S(=O)(=O)c2ccccc2)c1C | inactive: -25.8% |
